In one test the target is T1, TNF (Homo sapiens, UniProt P01375).
T1 construct: purchased R&D Systems 210-TA
As to the kind of experiment: SPR binding specificity study, TNF. The following applies: up to 675 nM analyte. As for the experimental part:
(§1) HSA (Albucult®, Novozyme) was diluted to 10 μg/ml in acetate, pH 4.0, and immobilized onto a CM5 sensor chip using a Biacore 2000 instrument. Immobilization was performed by amine chemistry, using amine coupling kit, according to the manufacturer's instructions. The first surface of each chip was activated and deactivated for use as a reference cell (blank surface) during analyte injections. HBS-EP was used as running buffer, supplemented with 1.5 mM DTT when analyzing the binding to HMGB1(red). ZZA4263 was injected at a concentration of 100 nM for 4 minutes over the HSA and the reference sensor chip surfaces at a constant flow rate of 30 μl/min. This was followed by 4 minutes' injection of 0, 8.3, 25, 75, 225 and 675 nM of HMGB1(red), HMGB1(disulfide), HMGB2 (Biorbyt, cat. no. orb180287), HMGB3 (Biorbyt, cat. no. orb180288), SP100 (Biorbyt, cat. no. orb169341), TNF (R&D Systems, cat. no. 210-TA), IL-6 (R&D Systems, cat. no. 206-IL) and IL-1β (R&D Systems, cat. no. 201-LB/CF), respectively. The proteins were allowed to dissociate for 20 minutes before the chip surfaces were regenerated by two 10 second pulses using 10 mM HCl. The reference surface and the buffer sample were subtracted from all curves. The buffer sample was subtracted to adjust for the dissociation of ZZA4263 from HSA. […]
For orientation: In SPR one partner is held on a chip, and binding of the other changes the refractive index at the surface.

The target in the next test is T2, SP100 nuclear antigen (Homo sapiens, UniProt P23497).
T2 construct: purchased Biorbyt orb169341
T2 sequence (P23497 1-879): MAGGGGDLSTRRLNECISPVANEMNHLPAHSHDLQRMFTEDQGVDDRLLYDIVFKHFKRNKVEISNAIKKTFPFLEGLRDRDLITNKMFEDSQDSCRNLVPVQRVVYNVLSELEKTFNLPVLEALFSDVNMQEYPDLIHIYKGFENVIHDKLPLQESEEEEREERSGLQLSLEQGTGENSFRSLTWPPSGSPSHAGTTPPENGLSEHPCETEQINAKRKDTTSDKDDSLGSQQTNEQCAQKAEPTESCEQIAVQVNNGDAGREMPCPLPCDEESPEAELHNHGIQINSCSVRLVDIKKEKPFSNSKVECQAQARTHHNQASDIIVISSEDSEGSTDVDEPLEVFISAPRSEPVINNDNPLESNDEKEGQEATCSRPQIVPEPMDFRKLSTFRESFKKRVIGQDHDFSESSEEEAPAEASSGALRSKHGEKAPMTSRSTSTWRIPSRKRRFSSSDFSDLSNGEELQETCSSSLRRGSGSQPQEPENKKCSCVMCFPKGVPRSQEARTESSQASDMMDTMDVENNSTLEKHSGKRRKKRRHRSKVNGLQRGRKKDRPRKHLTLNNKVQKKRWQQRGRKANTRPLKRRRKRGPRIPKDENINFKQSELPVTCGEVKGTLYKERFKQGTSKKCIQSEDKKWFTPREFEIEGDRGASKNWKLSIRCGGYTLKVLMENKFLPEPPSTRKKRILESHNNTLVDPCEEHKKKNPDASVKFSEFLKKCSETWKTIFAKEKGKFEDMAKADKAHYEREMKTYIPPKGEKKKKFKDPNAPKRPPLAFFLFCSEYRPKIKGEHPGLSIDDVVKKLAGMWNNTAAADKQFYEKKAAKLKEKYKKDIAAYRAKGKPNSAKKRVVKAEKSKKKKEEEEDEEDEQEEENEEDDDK
As to the kind of experiment: SPR binding specificity study, SP100. The following applies: analyte SP100 nuclear antigen; captured on HSA. The protocol:
HSA (Albucult®, Novozyme) was diluted to 10 μg/ml in acetate, pH 4.0, and immobilized onto a CM5 sensor chip using a Biacore 2000 instrument. Immobilization was performed by amine chemistry, using amine coupling kit, according to the manufacturer's instructions. The first surface of each chip was activated and deactivated for use as a reference cell (blank surface) during analyte injections. HBS-EP was used as running buffer, supplemented with 1.5 mM DTT when analyzing the binding to HMGB1(red). ZZA4263 was injected at a concentration of 100 nM for 4 minutes over the HSA and the reference sensor chip surfaces at a constant flow rate of 30 μl/min. This was followed by 4 minutes' injection of 0, 8.3, 25, 75, 225 and 675 nM of HMGB1(red), HMGB1(disulfide), HMGB2 (Biorbyt, cat. no. orb180287), HMGB3 (Biorbyt, cat. no. orb180288), SP100 (Biorbyt, cat. no. orb169341), TNF (R&D Systems, cat. no. 210-TA), IL-6 (R&D Systems, cat. no. 206-IL) and IL-1β (R&D Systems, cat. no. 201-LB/CF), respectively. The proteins were allowed to dissociate for 20 minutes before the chip surfaces were regenerated by two 10 second pulses using 10 mM HCl. The reference surface and the buffer sample were subtracted from all curves. The buffer sample was subtracted to adjust for the dissociation of ZZA4263 from HSA. All curves were fitted to a kinetic 1:1 Langmuir model in the BIA Evaluation software to estimate the binding properties (ka, kd and KD).

The next test deals with T3, IL-1β (Homo sapiens, UniProt P01584).
T3 construct: purchased R&D Systems 201-LB/CF
Briefly: SPR binding specificity study, IL-1β. The following applies: up to 675 nM analyte. As for the experimental part:
as §1

A further test concerns HMGB2, HMGB3, SP100. As to the kind of experiment: SPR binding specificity study, homologous proteins relative to HMGB1(red). The following applies: ratio of KD values. Further details: species or system human. The protocol:
as §1

The target in another test is T4, HMGB3 (Homo sapiens, UniProt O15347).
T4 construct: purchased Biorbyt orb180288
T4 sequence (O15347 1-200): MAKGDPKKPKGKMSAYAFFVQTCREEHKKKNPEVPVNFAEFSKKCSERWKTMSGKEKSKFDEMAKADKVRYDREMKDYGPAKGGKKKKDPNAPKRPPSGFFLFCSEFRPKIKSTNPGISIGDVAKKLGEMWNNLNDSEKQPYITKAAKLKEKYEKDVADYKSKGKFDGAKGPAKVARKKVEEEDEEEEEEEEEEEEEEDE
As to the kind of experiment: SPR binding specificity study, HMGB3. The following applies: analyte HMGB3; captured on HSA. The protocol: as §1

The target of another test is T5, IL-6 (Homo sapiens, UniProt P05231).
T5 construct: purchased R&D Systems 206-IL
Briefly: SPR binding specificity study, IL-6. The following applies: up to 675 nM analyte. The protocol:
as §1

The next test concerns the target T6, HMGB1(disulfide) (Rattus norvegicus, UniProt P63159).
T6 construct: purchased HMGBiotech Srl, Milano, Italy
T6 sequence (P63159 1-215): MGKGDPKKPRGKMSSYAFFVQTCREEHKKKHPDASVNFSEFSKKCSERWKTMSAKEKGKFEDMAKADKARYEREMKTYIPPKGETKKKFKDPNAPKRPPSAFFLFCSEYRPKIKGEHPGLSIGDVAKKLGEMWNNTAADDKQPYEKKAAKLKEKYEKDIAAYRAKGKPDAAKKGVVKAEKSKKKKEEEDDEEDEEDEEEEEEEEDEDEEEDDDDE
Briefly: SPR binding specificity study, HMGB1(disulfide). The following applies: analyte HMGB1 (disulfide); captured on HSA. The protocol: as §1

As a reminder, the Kd is a measure of binding affinity in units of concentration.

T3 sequence (P01584 117-269): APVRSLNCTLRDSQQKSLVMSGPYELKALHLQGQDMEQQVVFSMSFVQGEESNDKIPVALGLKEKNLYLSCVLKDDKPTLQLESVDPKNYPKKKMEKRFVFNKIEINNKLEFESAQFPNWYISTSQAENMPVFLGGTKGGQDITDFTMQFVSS
T1 sequence (P01375 77-233 limits assumed): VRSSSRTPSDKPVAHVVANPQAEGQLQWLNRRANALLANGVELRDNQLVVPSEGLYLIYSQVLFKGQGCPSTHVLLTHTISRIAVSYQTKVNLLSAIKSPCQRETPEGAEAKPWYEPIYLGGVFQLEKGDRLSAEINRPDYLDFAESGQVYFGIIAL
T5 sequence (P05231 30-212): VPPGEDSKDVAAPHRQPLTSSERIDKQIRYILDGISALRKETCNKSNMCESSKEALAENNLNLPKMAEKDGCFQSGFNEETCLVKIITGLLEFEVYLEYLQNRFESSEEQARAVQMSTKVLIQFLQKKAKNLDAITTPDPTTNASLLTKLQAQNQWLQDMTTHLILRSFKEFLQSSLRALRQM

B1: ZZA4263: heterodimer ZH27/ZH32, format Z(boxB)-L2-Z(boxA)-ABD (protein)
chain: AEAKYAKEAWLAEQEIWQLPNLTEAQFQAFILKLIDDPSQSSELLSEAKKLNDSQAPKGAPGGGGSTSAEAKYAKEDWDAFWEIIWLPNLTDAQQRAFIYKLEDDPSQSSELLSEAKKLNDSQAPKASGSLAEAKEAANAELDSYGVSDFYKRLIDKAKTVEGVEALKDAILAALP
modifications: Engineered HMGB1 binding polypeptide
notes: heterodimer ZH27/ZH32, format Z(boxB)-L2-Z(boxA)-ABD
As for B1, in the test with TNF, the “binding to TNF” value is on record as “No significant binding”. Moreover, in the test with SP100 nuclear antigen, the dissociation constant (Kd) was 38 nM, the “ka” value came to 5700 M⁻¹ s⁻¹ and the “kd” value is 0.00022 s⁻¹. Also, the “binding to IL-1β” value with IL-1β is “No significant binding”. The “lower affinity for HMGB2, HMGB3, SP100 compared to HMGB1(red)” value in the test on HMGB2, HMGB3, SP100 is recorded as 17-550 times. Also, in the test with HMGB3, the “ka” value amounted to 20000 M⁻¹ s⁻¹ and the “kd” value turned out to be 0.0013 s⁻¹. Moreover, the “binding to IL-6” value with IL-6 was “No significant binding”. For the same molecule, in the test with HMGB1(disulfide), the “ka” value was found to be 49000 M⁻¹ s⁻¹ and the “kd” value was 0.00054 s⁻¹.
